This is one part of the list.
Assays:
HSkMC = human skeletal muscle cells; experiment: cytotoxicity call (relative viability < 0.9); settings: 10 µM
HepG2 = experiment: cytotoxicity call (relative viability < 0.9); settings: 10 µM
S. aureus RN4220 = experiment: growth inhibition call (relative growth <= 0.2); settings: 50 µM

Structure (SMILES) | cytotoxicity call (HSkMC) | cytotoxicity call (HepG2) | growth inhibition call (S. aureus RN4220)
C[C@@H]1CN([C@@H](C)CO)C(=O)c2c(c3ccccc3n2C)-c2ccccc2CO[C@@H]1CN(C)Cc1cccc(C(F)(F)F)c1 | active | inactive | inactive
CO[C@@H]1CN(C)C(=O)c2cc(NC(=O)C3CC3)ccc2OC[C@H](C)N(C(=O)CN2CCOCC2)C[C@H]1C | inactive | inactive | inactive
CN(C)Cc1cn(CC[C@H]2CC[C@H](NS(=O)(=O)c3ccccc3)[C@@H](CO)O2)nn1 | inactive | inactive | inactive
C[C@@H]1CN([C@H](C)CO)C(=O)c2cc(Br)cnc2O[C@H]1CN(C)S(=O)(=O)c1ccccc1 | inactive | inactive | inactive
C[C@H]1CN([C@@H](C)CO)S(=O)(=O)c2ccc(Br)cc2O[C@H]1CN(C)C(=O)CCN1CCCCC1 | inactive | inactive | inactive
C[C@H]1CN([C@@H](C)CO)C(=O)c2cccc(NC(=O)Nc3ccccc3)c2O[C@@H]1CN(C)Cc1ccc(C(=O)Nc2ccccc2N)cc1 | inactive | inactive | inactive
C[C@H]1CN([C@@H](C)CO)C(=O)c2cc(NC(=O)c3ccncc3)ccc2O[C@H]1CN(C)Cc1ccncc1 | inactive | inactive | inactive
COCCNC(=O)C[C@H]1C[C@@H]2c3cc(NC(=O)CN(C)C)ccc3O[C@@H]2[C@@H](CO)O1 | inactive | inactive | inactive
C[C@H](CO)N1C[C@H](C)[C@H](CN(C)C(=O)Nc2cccc3ccccc23)Oc2ccc(NS(=O)(=O)c3ccc(F)cc3)cc2CC1=O | inactive | inactive | inactive
Cc1ccc(O)c(-c2cc(-c3ccc(C(C)(C)C)cc3)[nH]n2)c1 | inactive | inactive | inactive
CNC(=O)C(=O)Nc1ccc(N2CCCS2(=O)=O)cc1 | inactive | inactive | inactive
COc1ccc(S(=O)(=O)Nc2ccc3c(c2)CC(=O)N([C@H](C)CO)C[C@@H](C)[C@@H](CN(C)S(=O)(=O)c2ccc(C)cc2)O3)cc1 | inactive | inactive | inactive
Cc1nc2c(C)cc(N)cn2n1 | inactive | inactive | inactive
O=C(C[C@@H]1CC[C@@H](NC(=O)CN2CCOCC2)[C@H](CO)O1)NCCc1ccncc1 | inactive | inactive | inactive
COc1ccc2c(c1)OC1COc3cc(OC)c(OC)cc3C1C2=O (stereo unspecified) | inactive | active | inactive
C[C@H](CO)N1C[C@H](C)[C@@H](CN(C)Cc2ccc3c(c2)OCO3)Oc2ccc(NC(=O)c3ccncc3)cc2C1=O | inactive | inactive | inactive
C[C@@H]1CN([C@H](C)CO)C(=O)c2cccc(NC(=O)NC3CCCCC3)c2O[C@H]1CN(C)Cc1ccc(-c2ccccc2)cc1 | inactive | inactive | inactive
